# Test results published in PubChem BioAssay AID1745853 (National Center for Advancing Translational Sciences (NCATS), 2022).
# The other results are listed elsewhere or left out. Further columns of the screen follow, without active or inactive calls.
# Columns and labels:
# Assay in all cases: Primary Screen for Target Class Profiling of Small Molecule Inhibitors of Methyltransferases
# [1] = target: Glycine N-methyltransferase (Homo sapiens) (UniProt Q14749); settings: purified enzyme, MTase-Glo SAH luminescence; measured here: GNMT inhibition; at 40 µM; stronger effect = lower value
# Method in brief: (§1)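 Each enzyme was reacted with SAM and its substrate, with compounds tested once at 40 uM; SAH formed was read by MTase-Glo luminescence.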
# [2] = target: Guanidinoacetate N-methyltransferase (Homo sapiens) (UniProt Q14353); settings: purified enzyme, MTase-Glo SAH luminescence; measured here: GAMT inhibition; at 40 µM; stronger effect = lower value
# Method in brief: as §1
# [3] = target: Histamine N-methyltransferase (Homo sapiens) (UniProt P50135); settings: purified enzyme, MTase-Glo SAH luminescence; measured here: HNMT inhibition; at 40 µM; stronger effect = lower value
# Method in brief: as §1
# [4] = target: Nicotinamide N-methyltransferase (Homo sapiens) (UniProt P40261); settings: purified enzyme, MTase-Glo SAH luminescence; measured here: NNMT inhibition; at 40 µM; stronger effect = lower value
# Method in brief: as §1
# [5] = target: Phenylethanolamine N-methyltransferase (Homo sapiens) (UniProt P11086); settings: purified enzyme, MTase-Glo SAH luminescence; measured here: PNMT inhibition; at 40 µM; stronger effect = lower value
# Method in brief: as §1
# % is scaled to controls: 0 for no effect and ±100 for the full control effect.
SMILES,"activity change, negative = inhibition [1] [%]","activity change, negative = inhibition [2] [%]","activity change, negative = inhibition [3] [%]","activity change, negative = inhibition [4] [%]","activity change, negative = inhibition [5] [%]"
OC[C@H]1O[C@H](O[C@]2(CCl)O[C@H](CCl)[C@@H](O)[C@@H]2O)[C@H](O)[C@@H](O)[C@H]1Cl,-0.325,3.17,9.03,-10.7,4.26
CC(CNC(=O)CCCc1nnc2n3nc(-c4ccccc4)nc3c3ccccc3n12)c1ccccc1 (stereo not drawn),-14.8,4.19,-6.07,-7.07,-5.5
O=C(Cc1ccc(Cl)cc1)Nc1cnccc1C(=O)O,2.71,7.46,5.75,-8.23,2.52
O=C(CSc1nnc2n(CCc3ccccc3)c(=O)c3ccccc3n12)NCc1ccccc1,6.75,0.521,11.2,5.41,5.71
COC(=O)c1cc(COc2ccc3c(-c4ccccc4)cc(=O)oc3c2C)c(C)o1,-2.73,3.78,1.1,-3.8,-8.14
CCCCN1C(=O)c2cc(C(=O)N3CCN(c4ccc(OC)cc4)CC3)nn2CC1(C)C(=O)NC1CCCC1 (stereo not drawn),-0.312,0,2.23,-2.92,-2.76
CC(C)OCCCn1c(=O)c2ccccc2n2c(=O)n(CC(=O)NCc3ccccc3Cl)nc12,-4.38,2.54,-1.55,0.671,-2.99
COc1ccccc1-c1ccc(C(=O)N2C[C@@H](N(C)C)[C@H](C(C)C)C2)cc1,-5.37,-7.64,-3.85,-13.1,10.7
COCC(=O)N1CCC[C@@H]1C(=O)N1CCC(N2CCOC2=O)CC1,-6.13,-8.96,-5.01,-12.7,-10.9
COc1cc2c3c(cc4ccccc4c3c1O)NC2=O,-22.4,0.402,-18.6,-15.6,1.6
CC(C)C[C@H](NC(=O)[C@@H](NC(=O)c1cccc(-c2ccccc2)n1)[C@@H](C)O)B(O)O,-10.5,-3.97,8.71,-21.3,-6.29
Cn1c(=O)n(C)c2cc(S(=O)(=O)N(Cc3ccccc3)C(=O)c3cccnc3)ccc21,-2.57,4.98,-2.34,3.14,-0.546
CCC(=O)N1CCC(OC2CCN(C(=O)CC3CCCCC3)CC2)CC1,1.3,3.47,3.28,-5.96,18.3
O=C(C1CC(=O)N(C2CC2)C1)N1CCC(Oc2ccccc2Cl)CC1 (stereo not drawn),-1.19,-10.1,-1.09,-4.99,-0.32
Cn1c2ccc(NC(=O)c3ccccc3)cc2c(=O)n2nc(C(=O)O)cc12,-14,-9.17,-2.76,-16.7,-3.25
CC1c2cccn2CCN1C(=O)Nc1ccccc1Br (stereo not drawn),-10.5,-1.43,-6.87,-16.2,-9.83
CCCn1c(=O)c2cc(F)ccc2n2c(SCc3ccccc3)nnc12,-16.2,0,3.14,-4.93,1.75
O=C(CCn1ccc2cc(S(=O)(=O)N3CCCC3)ccc21)NCc1ccccn1,-1.88,-8.16,3.18,-5,-5.82
CCCCc1ccc(-n2cc(CN3CCN(C(C)=O)CC(O)C3)cn2)cc1 (stereo not drawn),-7.27,-13,-4.41,-20,-26.7
CC(=O)Nc1c2n(c3ccccc13)CC(C)(C(=O)NC1CCCC1)N(C1CCC(C)CC1)C2=O (stereo not drawn),3.31,0,2.68,-1.75,1.68

SMILES,"activity change, negative = inhibition [1] [%]","activity change, negative = inhibition [2] [%]","activity change, negative = inhibition [3] [%]","activity change, negative = inhibition [4] [%]","activity change, negative = inhibition [5] [%]"
C=CCn1c(=O)c2ccc(C(=O)NCC(C)C)cc2n2c(=O)n(CC(=O)N(C)c3ccccc3)nc12,-3.96,-0.113,2.42,-6.72,-2.48
CC1(C(=O)NC2CCCCC2)Cn2c(cc3occc32)C(=O)N1C1CCCCCC1 (stereo not drawn),8.14,0,8.35,17.1,5.74
CC(C)N1CC[C@@H]2[C@H]1C(=O)NC[C@H](CCC(=O)NCc1ccc(F)cc1)N2C,-0.539,-1.03,1.33,-0.293,1.81
CC1CCN(CCCNC(=O)CCc2nnc3n(Cc4ccc(F)cc4)c(=O)c4ccccc4n23)CC1,3.14,0.991,-59.4,1.12,0.153
CC1=CC(=O)C(=C(C)C)CC2C1CCC2(C)O (stereo not drawn),3.47,3.51,6.24,-9.86,0.144
O=C(c1ccc2ncccc2c1)N1CC(n2ccnc2)C1,-3.49,-4.05,-1.68,-1.11,-19.8
CCOC(=O)c1cc2n(n1)CC(C)(C(=O)NC1CCCCCC1)N(CCc1cccs1)C2=O (stereo not drawn),-0.708,9.44,-12.2,-4.12,4.35
COc1cc2c(N3CCN(C(=O)Nc4ccc(OC(C)C)cc4)CC3)ncnc2cc1OCCCN1CCCCC1,-6.74,6.55,-29.3,-34.3,-4.61
O=S(=O)(Nc1cccc2c1CCCC2)c1ccc2[nH]c3c(c2c1)CCCC3,0.037,0,-3.72,-27.3,-3.77
COC(=O)c1ccc(COc2ccc3c(-c4ccccc4)cc(=O)oc3c2C)o1,-0.122,0,6.04,3.29,-0.785
COC(=O)C#Cc1ccc([N+](=O)[O-])cc1,–,-20.1,–,-12.3,-1.7
NC(=O)c1cn(Cc2c(F)cccc2F)nn1,-5.75,4.64,1.79,-14,3.46
COc1cccc(CN2CCC3(CC2)COc2ccccc2CN3)c1,7.56,-6.05,-11.2,-10.9,-8.17
CCN1C(=O)c2cc(C(=O)NCc3ccc(Cl)cc3)nn2CC1(C)C(=O)NC1CCCC1 (stereo not drawn),-0.524,0,-0.381,-0.805,-0.807
C[C@@H]1C[C@@H]([C@@H](O)C(C)(C)O)O[C@H]2C[C@@]3(C)C(=C12)C[C@H](O)[C@H]1[C@@]2(C)CCC(=O)C(C)(C)C2CC[C@@]13C (stereo partly drawn),3.83,3.96,9.46,-8.77,-3.61
OC(c1ccc(-c2ccc(CN3CCN(Cc4ccncc4)CC3)cc2)c(F)c1)(C(F)(F)F)C(F)(F)F,-8.77,-19.3,-7.47,-24.6,-18.2
CCCn1c(=O)c2ccccc2n2c(=O)n(Cc3cccc(C)c3)nc12,0.05,0,7.47,0.814,2.47
COCCN1CC(CO)C2(CCN(C3CCN(C(C)=O)CC3)CC2)C1 (stereo not drawn),-5.78,-12.6,-5.16,-15.7,-9.42
COc1cccc(N2C(=O)CSc3c(c4ccccc4n3C)C2C(=O)NCc2ccccc2)c1 (stereo not drawn),10.4,0,8.16,11.3,6.76
